# Source: PubChem BioAssay AID1240 (Sanford-Burnham Center for Chemical Genomics, 2008)
# The whole screen tested about 50,000 compounds, of which about 800 (1.6%) showed an effect of 50% or more. Some of the results follow.
# Biological target: Bcl-2-like protein 10 (Homo sapiens) (UniProt Q9HD36)
# Experiment: Phenotype converters, Bcl-B/TR3 peptide binding displacement, primary biochemical FP (AID 1240);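 further: 0% = Bcl-B with tracer peptide and DMSO and 100% = tracer peptide lacking Bcl-B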
# Conditions: GST-Bcl-B / FITC-TR3 peptide fluorescence polarization; stronger effect = higher value; compound at 3.75 mg/L
# Sequence of UniProt Q9HD36 (Q9HD36 whole entry, looked up): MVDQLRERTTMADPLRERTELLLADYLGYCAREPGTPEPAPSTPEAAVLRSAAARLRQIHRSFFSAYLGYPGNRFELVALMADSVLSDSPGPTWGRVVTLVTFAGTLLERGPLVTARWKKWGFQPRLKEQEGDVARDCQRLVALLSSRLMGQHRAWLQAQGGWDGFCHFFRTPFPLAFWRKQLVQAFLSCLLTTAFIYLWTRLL
row,SMILES,displacement [%]
1,CC(C)CC(=O)N1CCN(Cc2ccncc2)CC1,-5.8
2,CCCCOC(=O)c1ccc(NC(C)=O)cc1,15.2
3,Cc1[nH]c2ccc(S(N)(=O)=O)cc2c1C,-3.4
4,Cc1cccc(OCC(=O)O/N=C(\N)Cc2ccc(Cl)cc2)c1,6.6
5,C=CCOc1nc(-c2cccnc2)nc2ccccc12,14.9
6,COc1cccc(N2C(=O)CC(NCc3ccc(S(N)(=O)=O)cc3)C2=O)c1 (stereo unspecified),-3
7,COc1ccc2nc(NC(=O)c3ccccc3O)sc2c1,0.4
8,Cc1ccc(OCCOc2ccc(/C=N/n3cnnc3)cc2)cc1,-8.3
9,CCOc1cc(/C=N/NC(=O)COc2cccc(C)c2)ccc1OC(=O)c1cccs1,-0.9
10,CN(C)c1ccc(/C=N/NC(=O)Cn2c3ccccc3c(=O)c3ccccc32)cc1[N+](=O)[O-],2.3
11,FC(F)(F)c1ccccc1CN1CCN(Cc2c[nH]c3ccccc23)CC1,-5.2
12,CCOC(=O)CSc1nnc(-c2ccccc2)c(-c2ccccc2)n1,-5.3
13,C=CCNC(=S)Nc1c(C)n(C)n(-c2ccccc2)c1=O,0.4
14,C1=C(c2ccc3c(c2)c2c4n3CCN(Cc3ccccc3)C4CCC2)C2CCN1CC2 (stereo unspecified),11.6
15,O=C1NC(=O)C(=Cc2cn(CCOc3ccc(Br)cc3)c3ccccc23)C(=O)N1,73.8
16,CCN(CC)c1ccc(C(=O)Nc2ccccc2F)cc1,10.5
17,O=C(N/N=C/c1cccc(O)c1)c1cncc(Br)c1,1.4
18,O=C1N=c2ccccc2=C1c1sc(Nc2ccc(O)cc2)nc1O,40.6
19,Cc1ccoc1C(=O)NCc1ccccc1,9.5
20,O=C1c2ccccc2C(=O)N1C/C=C/CN1C(=O)c2ccccc2C1=O,9
21,O=C(CSc1ncccn1)N/N=C/c1ccccc1O,-5
22,O=[N+]([O-])c1cnc(-c2ccccc2)nc1,-3.2
23,CCOC(=O)c1c(C)oc2cc(Br)c(OC(C)C(=O)OCC)cc12 (stereo unspecified),10.4
24,COc1ccc(CCNC(=O)c2cccc(F)c2)cc1,-16.9

row,SMILES,displacement [%]
1,O=C1NC(=S)NC(=O)C1=Cc1ccccc1OS(=O)(=O)c1ccc([N+](=O)[O-])cc1,-7.8
2,O=C(CCc1ccccc1)NNC(=O)c1ccc(Cl)cc1Cl,-14.9
3,O=c1c2cnn(-c3ccccc3)c2nc(-c2ccccc2)n1-c1cccc(Cl)c1,7.9
4,O=C(NCc1ccccc1)c1ccncc1,-1.5
5,COc1cccc(C(=O)NC(NC(=S)Nc2cc(Cl)ccc2Cl)C(Cl)(Cl)Cl)c1 (stereo unspecified),14.6
6,CC1(C)Cc2ccccc2C(N/N=C/c2c(O)ccc3ccccc23)=N1,-1.7
7,COc1cc(-c2noc(-c3ccc(Br)cc3)n2)cc(OC)c1OC,11
8,COc1ccc(Br)cc1C=NN1CCN(Cc2ccccc2)CC1,-6
9,CC(C)(C)NC(=O)c1cc(NC(=O)c2cccs2)cc(NC(=O)c2cccs2)c1,-17.9
10,Cc1ccc(S(=O)(=O)/N=C2/C=C(S(=O)(=O)c3ccc(C)cc3)C(=O)c3ccccc32)cc1,5.6
11,CCOc1ccc(NC(=O)c2c(N)sc(-c3ccccc3)c2C)cc1,-0.3
12,Nc1sc2c(c1C(=O)Nc1cccc3ccccc13)CCC2,-11.2
13,Cc1ccccc1-c1nnc(NC(=O)Nc2ccc(Cl)c(Cl)c2)s1,0.3
14,COc1ccccc1C(=O)NC(NC(=O)c1ccccc1OC)c1ccc(F)cc1,-1.7
15,Cc1cc(C)cc(CSCC(=O)NCCSc2ccccc2)c1,-5.3
16,CCOC(=O)c1c(NC(=O)c2ccc(OC)cc2)sc(C(=O)Nc2ccccc2C(F)(F)F)c1C,-16.3
17,COc1ccccc1C1/C(=C(\O)c2ccc(Cl)cc2)C(=O)C(=O)N1CCCCCC(=O)O (stereo unspecified),3.4
18,O=C(CSc1nnc(SCC(=O)Nc2ccc(F)cc2)s1)Nc1ccc(F)cc1,9.8
19,Cc1ccccc1OCCOc1cccc(/C=N/n2cnnc2)c1,-10.8
20,C=CCc1cccc2cc(C(=O)Nc3ccc(C)cc3[N+](=O)[O-])c(=O)oc12,11.2
21,COc1ccccc1OCCCCNC(C)(C)C,7.5
22,Cc1ccc(NC(=O)C2CC(=O)N(c3ccc(Br)cc3)C2)cc1 (stereo unspecified),2.5
23,Cc1ccc(-c2nnc(-c3cccnc3)o2)cc1,0.7
24,COc1cccc(CC(CC(=O)Nc2cc(C)ccc2C)C(=O)O)c1 (stereo unspecified),-4.8

row,SMILES,displacement [%]
1,Nc1ccc(C(=O)/C=C/c2ccc(F)cc2)cc1,9.6
2,O=C(Nc1c(C(=O)N2CCCCC2)cnn1-c1ccccc1)c1ccc(Br)cc1,-11.9
3,O=C(CCCN1C(=O)c2cccc3cccc(c23)C1=O)NCC1CCCO1 (stereo unspecified),0.9
4,CC(Oc1ccccc1)C(=O)Nc1cccc(C(F)(F)F)c1 (stereo unspecified),13.8
5,COc1ccccc1CNC(=O)CC1S/C(=N\N=C\c2ccccc2)NC1=O (stereo unspecified),1.2
6,O=C(Nc1ccc(Br)cn1)C(c1ccccc1)c1ccccc1,8
7,O=C(NCCCO)C(=O)NCC1CCCO1 (stereo unspecified),11.4
8,COc1ccc(NC(=O)Nc2cc(C(F)(F)F)cc(C(F)(F)F)c2)cc1OC,-14.8
9,C/C(=N\NC(=O)c1[nH]nc2c1CCc1ccccc1-2)c1ccccc1O,-6.1
10,Cc1cccc(N2C(=O)NC(=O)/C(=C/c3ccc(Br)o3)C2=O)c1,26.7
11,CC(C)N(Cc1ccccc1)C(=O)/C=C/c1ccccc1,-10.9
12,CCCOc1ccc(C2C(C#N)=C(C)NC3=C2C(=O)CC(C)(C)C3)cc1OC (stereo unspecified),-6.4
13,Cc1ccc(-c2nc3ncccc3o2)cc1NC(=O)/C=C/c1ccco1,116
14,COC(=O)c1cc(-c2cccs2)nc2ccc(Br)cc12,104
15,COc1ccccc1OCCNc1cc(N2CCOCC2)ccc1[N+](=O)[O-],4.4
16,COc1ccc(C2C3=C(CC(C)(C)CC3=O)OC3=C2C(=O)CC(C)(C)C3)cc1Br,10.8
17,CCN(CC)C(=O)c1cccc(-c2ccc(OC(C)=O)cc2)c1,6.3
18,O=C(c1ccccc1F)N1CCN(c2ccc([N+](=O)[O-])c(NCc3ccccc3)c2)CC1,8.2
19,CC1(C(=O)NNC(=O)c2ccccc2)CC2C=CC1C2 (stereo unspecified),11
20,O=c1nc(-c2ccccc2)c2cc(SC(F)(F)F)ccc2[nH]1,9.7
21,COc1ccc(-c2noc(-c3cccc([N+](=O)[O-])c3C)n2)cc1,1.5
22,Cc1cc(Cl)ccc1OC(C)C(=O)NCCCn1ccnc1 (stereo unspecified),-1.2
23,O=[N+]([O-])c1ccccc1S(=O)(=O)Nc1ccc2c(c1)OCCO2,0.8
